± gives the uncertainty stated by the source. Over roughly 9,900 compounds, “viability index relative to DMSO control” has its median near 1; the lowest 2% begin near 0.85. The list shows a part of the results.
Test system: Plasmodium falciparum NF54 stage V gametocytes
Assay: viability index relative to DMSO control (fraction); higher = less gametocyte killing
Conditions: 2.5 µM, incubation time: 72 h
Summary of the method: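 Viability index is the count of red-stained particles in a well divided by the plate mean of solvent-only wells. Particles of 20–70 µm2 were counted in one imaged field per well after one to two hours with 3 µl of 2.5 µM MitoTracker Red CMXRos and 0.13% saponin. Before staining, P. falciparum NF54 stage V gametocytes in serum-free medium (0.75% gametocytemia, 1.25% hematocrit, 10 µl, 1,536-well plates) were kept with compound at 2.5 µM for 72 hr at 37°C under low oxygen.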

[1] = library set: Broad Institute DOS

SMILES | viability index [1] | viability index (library set: Broad Institute Blood Stage)
C[C@H]1CN([C@@H](C)CO)C(=O)c2cc(NC(=O)C3CCCCC3)ccc2O[C@@H]1CN(C)C(=O)Nc1ccc(C(F)(F)F)cc1 | 1.03 ± 0.038 | 
COc1ccc(S(=O)(=O)Nc2ccc3c(c2)C(=O)N([C@H](C)CO)C[C@H](C)[C@@H](CN(C)S(=O)(=O)c2ccc(Cl)cc2)OCCCC[C@@H](C)O3)cc1 | 1.02 ± 0.05 | 
COc1cccc(NC(=O)Nc2ccc3c(c2)C(=O)N(C)C[C@H](OC)[C@@H](C)CN(CC2CC2)[C@@H](C)CO3)c1 | 0.904 ± 0.031 | 
CC(C)C#Cc1ccc([C@@H]2[C@@H](CO)N3C(=O)CN(S(=O)(=O)c4ccccc4)C[C@H]23)cc1 | 1.01 ± 0.072 | 
CCS(=O)(=O)N[C@@H]1CC[C@@H](CC(=O)NCc2ccc(Cl)cc2)O[C@@H]1CO | 1.06 ± 0.14 | 
C/C=C/c1ccc([C@@H]2[C@@H]3CN(S(=O)(=O)c4cn(C)cn4)C[C@H]2N3)cc1 | 1.09 ± 0.02 | 
O=C(CC1CC1)N1[C@H](CO)[C@H]2c3ccccc3N(S(=O)(=O)c3ccccc3F)C[C@H]21 | 1.03 ± 0.048 | 
N#C[C@@H]1[C@H](c2ccccc2-c2cccc(F)c2)[C@@H](CO)N1C(=O)CN1CCOCC1 | 1.15 ± 0.16 | 
C[C@@H]1CN([C@@H](C)CO)C(=O)c2cc(NS(=O)(=O)c3ccc(F)cc3)ccc2O[C@@H]1CN(C)C(=O)Nc1ccccc1 | 1.03 ± 0.04 | 
N#C[C@@H]1[C@@H](c2ccccc2-c2cccc(F)c2)[C@@H](CO)N1C(=O)C1CC1 | 1.15 ± 0.027 | 
C[C@@H]1CCCCO[C@@H](CN(C)CC2CCCCC2)[C@@H](C)CN([C@H](C)CO)C(=O)c2cc(NC(=O)Nc3ccc(C(F)(F)F)cc3)ccc2O1 | 0.947 ± 0.14 | 
CC(=O)N1[C@H](CO)[C@@H](c2ccccc2)[C@@H]1CNC(=O)CN1CCOCC1 | 1.02 ± 0.038 | 
COc1ccc2c3c([C@H](CO)N(C[C@]33CCN(CC3)C(=O)c3ccccc3)C(=O)c3ccccc3)n(C)c2c1 | 0.979 ± 0.13 | 
O=C(NCC1CC1)[C@H]1[C@H](CO)[C@H]2Cn3c(ccc(C4=CCCC4)c3=O)[C@H]2N1C(=O)C1CC1 | 1.02 ± 0.08 | 
OC[C@H]1[C@H](c2ccccc2)C2(CN(Cc3ccccc3F)C2)N1Cc1ccccc1F | 1.02 ± 0.033 | 
O=C(C[C@@H]1CC[C@H]2[C@@H](COC[C@@H](O)CN2S(=O)(=O)c2ccc(F)cc2)O1)NCCN1CCCCC1 | 1.02 ± 0.062 | 
C/C=C/c1ccc([C@@H]2[C@@H](C#N)N(c3nc(CC)cs3)[C@H]2CO)cc1 | 1.1391 ± 5.2e-05 | 
CCC(=O)N1[C@H](CO)[C@@H](c2ccccc2)C12CN(C(=O)CN1CCOCC1)C2 | 1.04 ± 0.12 | 
Cc1ccc(-c2ccc([C@H]3[C@H](CO)N4C(=O)CN(C(=O)NC(C)C)C[C@@H]34)cc2)cc1 | 1.09 ± 0.061 | 
C[C@H](CO)N1C[C@H](C)[C@H](CN(C)C(=O)c2ccc3ccn(C)c3c2)OCc2cnnn2CCCC1=O | 0.982 ± 0.052 | 
CO[C@@H]1CN(C)C(=O)c2cc(NS(=O)(=O)c3cccc(Cl)c3)ccc2OC[C@H](C)NC[C@H]1C | 1.03 ± 0.099 | 
C[C@@H]1CCCCO[C@@H](CN(C)C(=O)c2ccncc2)[C@H](C)CN([C@H](C)CO)C(=O)c2cc(NC(=O)CCC(F)(F)F)ccc2O1 | 1.061 ± 0.0036 | 
COCC(=O)N1CC2(C1)[C@H](c1ccccc1)[C@@H](CO)N2C(=O)NC1CCCC1 | 1 ± 0.25 | 

SMILES | viability index [1] | viability index (library set: Broad Institute Blood Stage)
CN1C(=O)c2cc(NC(=O)Cc3cccs3)ccc2OC[C@@H]2O[C@H](CC(=O)N[C@H]3CCN(Cc4ccccc4)C3)CC[C@@H]21 | 1.06 ± 0.13 | 
COc1ccc(C[C@H]2CCc3cnnn3COC[C@H](CC(C)C)NC2=O)cc1 | 1.04 ± 0.16 | 
Cc1noc(C)c1NC(=O)N(C)C[C@@H]1OCc2cnnn2CCCC(=O)N([C@@H](C)CO)C[C@H]1C | 1.01 ± 0.063 | 
O=C(Nc1ccc(C(F)(F)F)cc1)N1C[C@@H]2N[C@H](C1)[C@@H]2c1ccc(-c2cccnc2)cc1 |  | 0.981 ± 0.042
CNC[C@H]1Oc2ccc(NC(=O)NC3CCCCC3)cc2CC(=O)N([C@@H](C)CO)C[C@@H]1C | 1.01 ± 0.051 | 
O=C(N[C@H]1C=C[C@H](CC(=O)N2CCC(Cc3ccccc3)CC2)O[C@H]1CO)c1cnccn1 | 0.985 ± 0.056 | 
O=C(Nc1ccccc1F)N[C@@H]1CC[C@H](CCNC(=O)C2CC2)O[C@H]1CO | 1.1 ± 0.013 | 
O=C(C[C@H]1CC[C@H](NC(=O)c2cccnc2)[C@@H](CO)O1)NCc1ccc(Cl)c(Cl)c1 | 1.07 ± 0.1 | 
C/C=C/c1cnc2c(c1)C(=O)N([C@H](C)CO)C[C@H](C)[C@H](CN(C)C(=O)Nc1cccc(OC)c1)O2 | 1.01 ± 0.016 | 
C[C@H]1CCCCO[C@H](CN(C)C(=O)CCCN(C)C)[C@@H](C)CN([C@@H](C)CO)C(=O)c2cc(NS(=O)(=O)c3ccc(Cl)cc3)ccc2O1 | 1.02 ± 0.12 | 
C[C@@H]1CN([C@@H](C)CO)C(=O)CCCn2nncc2CO[C@H]1CN(C)S(=O)(=O)c1cn(C)cn1 | 1.07 ± 0.065 | 
O=C(C1CCOCC1)N1CC2(C1)[C@@H](c1ccccc1)[C@H](CO)N2C(=O)CC1CC1 | 1.09 ± 0.078 | 
Cc1cccc(S(=O)(=O)N2C[C@H](O)COC[C@H]3O[C@H](CC(=O)Nc4ccccc4)CC[C@@H]32)c1 | 1.09 ± 0.042 | 
O=C(C[C@H]1CC[C@@H]2[C@H](COC[C@@H](O)CN2Cc2cc(F)cc(F)c2)O1)Nc1nccs1 | 1.04 ± 0.099 | 
C[C@@H]1CN([C@H](C)CO)C(=O)c2cc(NC(=O)Nc3ccc(C(F)(F)F)cc3)ccc2O[C@@H](C)CCCCO[C@H]1CN(C)S(=O)(=O)c1ccc(Cl)cc1 | 1.13 ± 0.12 | 
N#C[C@@H]1[C@H](c2ccccc2)[C@H](CO)N1C(=O)Nc1cccc(F)c1 | 1.0953 ± 0.00064 | 
C/C=C/c1ccc([C@H]2[C@H]3CNC[C@@H]2N3Cc2ccccc2C(F)(F)F)cc1 | 1.11 ± 0.0059 | 
C[C@@H](NC(=O)C[C@H]1CC[C@H]2[C@@H](COC[C@H](O)CN2C(=O)Nc2cccc(Cl)c2)O1)c1ccccc1 | 1.13 ± 0.1 | 
O=C(C[C@@H]1CC[C@@H](NS(=O)(=O)c2ccc(F)cc2)[C@H](CO)O1)N1CCN(c2ccccc2)CC1 | 1.05 ± 0.087 | 
O=C(CN1CCOCC1)N1CC2(C1)[C@@H](c1ccccc1)[C@H](CO)N2Cc1cccc(F)c1 | 1.08 ± 0.039 | 
CN1CCN(C(=O)C[C@H]2CC[C@@H]3[C@H](COC[C@H](O)CN3C(=O)Nc3ccc4c(c3)OCO4)O2)CC1 | 1.08 ± 0.039 | 
CC(C)c1cn(CC[C@H]2CC[C@H](NS(=O)(=O)c3ccc(F)cc3)[C@@H](CO)O2)nn1 | 1.1 ± 0.12 | 

Source: the supplement of paper PMC4723716
